# Data taken from the supplement of paper PMC12217912.
# The other results are listed elsewhere or left out. The full chains were built here from the parent and the listed change. Values near 0.05 are background.
# B1: TEV protease; numbered along this chain (parent)
# chain: MGESLFKGPRDYNPISSSICHLTNESDGHTTSLYGIGFGPFIITNKHLFRRNNGTLVVQSLHGVFKVKDTTTLQQHLVDGRDMIIIRMPKDFPPFPQKLKFREPQREERICLVTTNFQTKSMSSMVSDTSCTFPSGDGIFWKHWIQTKDGQCGSPLVSTRDGFIVGIHSASNFTNTNNYFTSVPKNFMELLTNQEAQQWVSGWRLNADSVLWGGHKVFMVKPEEPFQPVKEATQL
# Variants of: B1
# Test: raw area under fraction-flipped curve 0-4 h after induction (AUC4h, not background-subtracted), DNA-recorder readout of cleavage of the substrate (dimensionless); higher = more cleavage of the substrate by the protease variant
# Settings: temperature: 34 °C; time window: 0-4 h after rhamnose induction
# Description: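 In vivo DNA recorder in E. coli TOP10(DE3) ΔrhaA at 34 °C. Each TEVp single-site mutant (parent TEVp 0) is paired with a single-site variant of the 7-mer TEVs (canonical ENLYFQ|S). The substrate sits between flexible linkers in a Bxb1-sfGFP-TEVs-SsrA fusion, so cleavage stabilises Bxb1 and speeds flipping of a recombination array, read by NGS. The value is the raw area under the fraction-flipped curve over 0-4 h after rhamnose induction (AUC4h), with ≥20 reads per time point. It is not background-subtracted; inactive controls average about 0.047.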
# 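Also: Bxb1 expression induced with 0.2% (w/v) L-rhamnose at OD600 near 0.5, cultures sampled hourly, flipped fraction per protease–substrate barcode pair counted by paired-end Illumina sequencing.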
variant,measurement,value
N178C,area with substrate ENLYFAS,0.0611
same,area with substrate ENLYFES,0.0726
same,area with substrate ENLYFHS,0.0498
same,area with substrate ENLYFIS,0.0637
same,area with substrate ENLYFVS,0.0108
R102N,area with substrate ENLYFAS,0.0454
same,area with substrate ENLYFPS,0.0631
same,area with substrate ENLYFSS,0.0592
L211N,area with substrate ENLYFAS,0.0765
same,area with substrate ENLYFES,0.0889
same,area with substrate ENLYFFS,0.0664
same,area with substrate ENLYFIS,0.055
same,area with substrate ENLYFMS,0.0654
same,area with substrate ENLYFPS,0.0456
same,area with substrate ENLYFRS,0.0667
same,area with substrate ENLYFYS,0.0951
D128T,area with substrate ENLYFAS,0.0483
same,area with substrate ENLYFDS,0.0681
same,area with substrate ENLYFFS,0.0784
same,area with substrate ENLYFHS,0.0679
same,area with substrate ENLYFKS,0.067
same,area with substrate ENLYFTS,0.0561
same,area with substrate ENLYFYS,0.058
V58S,area with substrate ENLYFAS,0.0498
same,area with substrate ENLYFDS,0.055
same,area with substrate ENLYFGS,0.0602
same,area with substrate ENLYFIS,0.0543
same,area with substrate ENLYFKS,0.0613
same,area with substrate ENLYFLS,0.0458
same,area with substrate ENLYFMS,0.0561
same,area with substrate ENLYFSS,0.0542
same,area with substrate ENLYFVS,0.0274
same,area with substrate ENLYFWS,0.0386
V58G,area with substrate ENLYFAS,0.0387
same,area with substrate ENLYFGS,0.0549
same,area with substrate ENLYFMS,0.0439
same,area with substrate ENLYFYS,0.0409
L191Q,area with substrate ENLYFAS,0.0522
same,area with substrate ENLYFDS,0.053
same,area with substrate ENLYFES,0.0623
same,area with substrate ENLYFIS,0.054
same,area with substrate ENLYFMS,0.0495
same,area with substrate ENLYFRS,0.0397
same,area with substrate ENLYFSS,0.0555
same,area with substrate ENLYFTS,0.053
same,area with substrate ENLYFVS,0.0611
same,area with substrate ENLYFWS,0.05
same,area with substrate ENLYFYS,0.0527
T174C,area with substrate ENLYFAS,0.0559
same,area with substrate ENLYFCS,0.0578
same,area with substrate ENLYFES,0.063
same,area with substrate ENLYFFS,0.0773
same,area with substrate ENLYFIS,0.0518
same,area with substrate ENLYFKS,0.0562
same,area with substrate ENLYFPS,0.0625
same,area with substrate ENLYFRS,0.0501
same,area with substrate ENLYFSS,0.0559
same,area with substrate ENLYFTS,0.0639
same,area with substrate ENLYFYS,0.0457
N175A,area with substrate ENLYFAS,0.0333
same,area with substrate ENLYFCS,0.027
same,area with substrate ENLYFES,0.0641
same,area with substrate ENLYFFS,0.072
same,area with substrate ENLYFHS,0.0544
same,area with substrate ENLYFIS,0.0575
same,area with substrate ENLYFKS,0.0512
same,area with substrate ENLYFMS,0.0543
same,area with substrate ENLYFPS,0.0833
same,area with substrate ENLYFSS,0.0645
same,area with substrate ENLYFTS,0.0566
same,area with substrate ENLYFWS,0.058
M83R,area with substrate ENLYFAS,0.0473
same,area with substrate ENLYFCS,0.0373
same,area with substrate ENLYFHS,0.0509
same,area with substrate ENLYFIS,0.0502
same,area with substrate ENLYFKS,0.0389
same,area with substrate ENLYFPS,0.0498
same,area with substrate ENLYFTS,0.0546
same,area with substrate ENLYFVS,0.0485
same,area with substrate ENLYFYS,0.0385
L190T,area with substrate ENLYFAS,0.0705
same,area with substrate ENLYFES,0.0621
same,area with substrate ENLYFFS,0.0717
same,area with substrate ENLYFHS,0.0454
same,area with substrate ENLYFIS,0.067
same,area with substrate ENLYFMS,0.0745
same,area with substrate ENLYFNS,0.0681
same,area with substrate ENLYFPS,0.081
same,area with substrate ENLYFRS,0.069
same,area with substrate ENLYFTS,0.0641
same,area with substrate ENLYFYS,0.0521
R87D,area with substrate ENLYFAS,0.0485
same,area with substrate ENLYFCS,0.0583
same,area with substrate ENLYFDS,0.0408
same,area with substrate ENLYFES,0.034
same,area with substrate ENLYFFS,0.0657
same,area with substrate ENLYFIS,0.048
same,area with substrate ENLYFMS,0.0571
same,area with substrate ENLYFPS,0.0565
same,area with substrate ENLYFTS,0.0577
R87V,area with substrate ENLYFAS,0.0575
same,area with substrate ENLYFES,0.0676
same,area with substrate ENLYFFS,0.0475
same,area with substrate ENLYFIS,0.0543
same,area with substrate ENLYFMS,0.0748
same,area with substrate ENLYFPS,0.0758
T147V,area with substrate ENLYFAS,0.0502
same,area with substrate ENLYFDS,0.0491
same,area with substrate ENLYFKS,0.0443
same,area with substrate ENLYFLS,0.0561
same,area with substrate ENLYFMS,0.0619
same,area with substrate ENLYFNS,0.0726
same,area with substrate ENLYFRS,0.0559
same,area with substrate ENLYFTS,0.069
same,area with substrate ENLYFVS,0.0639
E189L,area with substrate ENLYFAS,0.0485
same,area with substrate ENLYFDS,0.0568
same,area with substrate ENLYFES,0.053
same,area with substrate ENLYFFS,0.0678
same,area with substrate ENLYFIS,0.0576
same,area with substrate ENLYFKS,0.0588
same,area with substrate ENLYFMS,0.0628
same,area with substrate ENLYFNS,0.0588
same,area with substrate ENLYFPS,0.0513
same,area with substrate ENLYFRS,0.0584
same,area with substrate ENLYFSS,0.0667
same,area with substrate ENLYFVS,0.0523
same,area with substrate ENLYFWS,0.0591
same,area with substrate ENLYFYS,0.0552
G166E,area with substrate ENLYFAS,0.0489
same,area with substrate ENLYFES,0.0574
same,area with substrate ENLYFFS,0.0672
same,area with substrate ENLYFIS,0.0467
same,area with substrate ENLYFMS,0.0535
same,area with substrate ENLYFPS,0.0551
same,area with substrate ENLYFRS,0.0495
same,area with substrate ENLYFWS,0.053
P222T,area with substrate ENLYFAS,0.0589
same,area with substrate ENLYFCS,0.0569
same,area with substrate ENLYFDS,0.0616
same,area with substrate ENLYFGS,0.0564
same,area with substrate ENLYFHS,0.0563
same,area with substrate ENLYFIS,0.052
same,area with substrate ENLYFKS,0.0594
same,area with substrate ENLYFLS,0.0584
same,area with substrate ENLYFMS,0.0624
same,area with substrate ENLYFNS,0.0677
same,area with substrate ENLYFPS,0.061
same,area with substrate ENLYFRS,0.0549
same,area with substrate ENLYFSS,0.0579
same,area with substrate ENLYFTS,0.0683
same,area with substrate ENLYFYS,0.0691
D91S,area with substrate ENLYFAS,0.0468
same,area with substrate ENLYFCS,0.0577
same,area with substrate ENLYFIS,0.0514
same,area with substrate ENLYFLS,0.0509
same,area with substrate ENLYFMS,0.0657
same,area with substrate ENLYFPS,0.0704
R109T,area with substrate ENLYFAS,0.0618
same,area with substrate ENLYFFS,0.0893
same,area with substrate ENLYFGS,0.0376
same,area with substrate ENLYFIS,0.0566
same,area with substrate ENLYFMS,0.0459
same,area with substrate ENLYFPS,0.0621
same,area with substrate ENLYFSS,0.0607
same,area with substrate ENLYFTS,0.0581
same,area with substrate ENLYFVS,0.0467
same,area with substrate ENLYFYS,0.061
